Drawing on article PMC5986797, “Laminin heparin-binding peptides bind to several growth factors and enhance diabetic wound healing” (Nature Communications, 2018), this text covers binding for seven substances.

Protein sequences, listed by entry. Tags and fused reporters are not part of them. Lines headed by an entry give the natural chain unless they say otherwise; changes in a name come on top. Residues count along the entry.
laminin peptide LAMA4_(1408–1434) (Q16363, residues 1408-1434): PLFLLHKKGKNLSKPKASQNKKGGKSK
laminin peptide LAMA4_(1521–1543) (Q16363, residues 1521-1543): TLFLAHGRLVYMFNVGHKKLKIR
UniProt P07942: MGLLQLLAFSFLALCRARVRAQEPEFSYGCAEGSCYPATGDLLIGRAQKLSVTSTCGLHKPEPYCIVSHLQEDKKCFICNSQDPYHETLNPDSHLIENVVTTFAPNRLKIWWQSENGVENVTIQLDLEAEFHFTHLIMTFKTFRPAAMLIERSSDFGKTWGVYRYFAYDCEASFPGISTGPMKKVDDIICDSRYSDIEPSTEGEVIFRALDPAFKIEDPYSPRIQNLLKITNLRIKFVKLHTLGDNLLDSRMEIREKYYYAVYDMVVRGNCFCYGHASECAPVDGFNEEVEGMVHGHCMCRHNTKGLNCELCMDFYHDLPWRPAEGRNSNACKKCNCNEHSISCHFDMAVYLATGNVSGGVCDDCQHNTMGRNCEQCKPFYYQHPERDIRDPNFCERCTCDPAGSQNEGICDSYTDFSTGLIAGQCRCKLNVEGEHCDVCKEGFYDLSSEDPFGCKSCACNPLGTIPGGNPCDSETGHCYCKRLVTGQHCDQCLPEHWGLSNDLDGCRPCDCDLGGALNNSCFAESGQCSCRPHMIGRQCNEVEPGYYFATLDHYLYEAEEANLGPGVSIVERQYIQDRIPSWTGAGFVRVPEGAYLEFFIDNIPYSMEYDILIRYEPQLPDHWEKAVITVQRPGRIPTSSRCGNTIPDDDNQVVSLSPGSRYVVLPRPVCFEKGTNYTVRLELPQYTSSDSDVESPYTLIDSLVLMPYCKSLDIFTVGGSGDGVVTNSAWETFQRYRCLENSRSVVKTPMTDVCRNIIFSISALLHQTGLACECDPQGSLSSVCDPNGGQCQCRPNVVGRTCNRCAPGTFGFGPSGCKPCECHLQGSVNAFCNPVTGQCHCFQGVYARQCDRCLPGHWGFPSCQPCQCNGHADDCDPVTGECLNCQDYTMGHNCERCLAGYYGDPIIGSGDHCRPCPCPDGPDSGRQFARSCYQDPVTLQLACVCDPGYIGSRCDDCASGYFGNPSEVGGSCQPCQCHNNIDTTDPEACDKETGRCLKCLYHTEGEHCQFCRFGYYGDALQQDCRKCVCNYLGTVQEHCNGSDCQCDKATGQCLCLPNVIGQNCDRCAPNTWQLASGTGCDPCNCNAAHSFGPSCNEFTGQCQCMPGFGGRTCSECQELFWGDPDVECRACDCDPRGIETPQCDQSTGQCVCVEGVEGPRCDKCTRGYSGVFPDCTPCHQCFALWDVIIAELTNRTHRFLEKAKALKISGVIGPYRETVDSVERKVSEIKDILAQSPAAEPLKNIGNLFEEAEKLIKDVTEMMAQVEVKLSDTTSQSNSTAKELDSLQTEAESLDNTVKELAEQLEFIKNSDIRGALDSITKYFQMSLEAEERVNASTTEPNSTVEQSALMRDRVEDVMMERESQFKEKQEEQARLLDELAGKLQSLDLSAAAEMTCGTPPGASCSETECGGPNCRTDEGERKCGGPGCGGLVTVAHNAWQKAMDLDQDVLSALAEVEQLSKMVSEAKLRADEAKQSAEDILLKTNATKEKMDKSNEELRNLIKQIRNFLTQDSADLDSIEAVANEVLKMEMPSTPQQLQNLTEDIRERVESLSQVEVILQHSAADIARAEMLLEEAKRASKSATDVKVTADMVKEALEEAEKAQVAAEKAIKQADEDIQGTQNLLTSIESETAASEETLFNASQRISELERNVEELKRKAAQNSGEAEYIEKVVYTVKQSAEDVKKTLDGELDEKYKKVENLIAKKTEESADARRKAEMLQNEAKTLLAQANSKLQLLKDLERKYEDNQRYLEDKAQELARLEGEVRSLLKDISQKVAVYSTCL
UniProt O15230: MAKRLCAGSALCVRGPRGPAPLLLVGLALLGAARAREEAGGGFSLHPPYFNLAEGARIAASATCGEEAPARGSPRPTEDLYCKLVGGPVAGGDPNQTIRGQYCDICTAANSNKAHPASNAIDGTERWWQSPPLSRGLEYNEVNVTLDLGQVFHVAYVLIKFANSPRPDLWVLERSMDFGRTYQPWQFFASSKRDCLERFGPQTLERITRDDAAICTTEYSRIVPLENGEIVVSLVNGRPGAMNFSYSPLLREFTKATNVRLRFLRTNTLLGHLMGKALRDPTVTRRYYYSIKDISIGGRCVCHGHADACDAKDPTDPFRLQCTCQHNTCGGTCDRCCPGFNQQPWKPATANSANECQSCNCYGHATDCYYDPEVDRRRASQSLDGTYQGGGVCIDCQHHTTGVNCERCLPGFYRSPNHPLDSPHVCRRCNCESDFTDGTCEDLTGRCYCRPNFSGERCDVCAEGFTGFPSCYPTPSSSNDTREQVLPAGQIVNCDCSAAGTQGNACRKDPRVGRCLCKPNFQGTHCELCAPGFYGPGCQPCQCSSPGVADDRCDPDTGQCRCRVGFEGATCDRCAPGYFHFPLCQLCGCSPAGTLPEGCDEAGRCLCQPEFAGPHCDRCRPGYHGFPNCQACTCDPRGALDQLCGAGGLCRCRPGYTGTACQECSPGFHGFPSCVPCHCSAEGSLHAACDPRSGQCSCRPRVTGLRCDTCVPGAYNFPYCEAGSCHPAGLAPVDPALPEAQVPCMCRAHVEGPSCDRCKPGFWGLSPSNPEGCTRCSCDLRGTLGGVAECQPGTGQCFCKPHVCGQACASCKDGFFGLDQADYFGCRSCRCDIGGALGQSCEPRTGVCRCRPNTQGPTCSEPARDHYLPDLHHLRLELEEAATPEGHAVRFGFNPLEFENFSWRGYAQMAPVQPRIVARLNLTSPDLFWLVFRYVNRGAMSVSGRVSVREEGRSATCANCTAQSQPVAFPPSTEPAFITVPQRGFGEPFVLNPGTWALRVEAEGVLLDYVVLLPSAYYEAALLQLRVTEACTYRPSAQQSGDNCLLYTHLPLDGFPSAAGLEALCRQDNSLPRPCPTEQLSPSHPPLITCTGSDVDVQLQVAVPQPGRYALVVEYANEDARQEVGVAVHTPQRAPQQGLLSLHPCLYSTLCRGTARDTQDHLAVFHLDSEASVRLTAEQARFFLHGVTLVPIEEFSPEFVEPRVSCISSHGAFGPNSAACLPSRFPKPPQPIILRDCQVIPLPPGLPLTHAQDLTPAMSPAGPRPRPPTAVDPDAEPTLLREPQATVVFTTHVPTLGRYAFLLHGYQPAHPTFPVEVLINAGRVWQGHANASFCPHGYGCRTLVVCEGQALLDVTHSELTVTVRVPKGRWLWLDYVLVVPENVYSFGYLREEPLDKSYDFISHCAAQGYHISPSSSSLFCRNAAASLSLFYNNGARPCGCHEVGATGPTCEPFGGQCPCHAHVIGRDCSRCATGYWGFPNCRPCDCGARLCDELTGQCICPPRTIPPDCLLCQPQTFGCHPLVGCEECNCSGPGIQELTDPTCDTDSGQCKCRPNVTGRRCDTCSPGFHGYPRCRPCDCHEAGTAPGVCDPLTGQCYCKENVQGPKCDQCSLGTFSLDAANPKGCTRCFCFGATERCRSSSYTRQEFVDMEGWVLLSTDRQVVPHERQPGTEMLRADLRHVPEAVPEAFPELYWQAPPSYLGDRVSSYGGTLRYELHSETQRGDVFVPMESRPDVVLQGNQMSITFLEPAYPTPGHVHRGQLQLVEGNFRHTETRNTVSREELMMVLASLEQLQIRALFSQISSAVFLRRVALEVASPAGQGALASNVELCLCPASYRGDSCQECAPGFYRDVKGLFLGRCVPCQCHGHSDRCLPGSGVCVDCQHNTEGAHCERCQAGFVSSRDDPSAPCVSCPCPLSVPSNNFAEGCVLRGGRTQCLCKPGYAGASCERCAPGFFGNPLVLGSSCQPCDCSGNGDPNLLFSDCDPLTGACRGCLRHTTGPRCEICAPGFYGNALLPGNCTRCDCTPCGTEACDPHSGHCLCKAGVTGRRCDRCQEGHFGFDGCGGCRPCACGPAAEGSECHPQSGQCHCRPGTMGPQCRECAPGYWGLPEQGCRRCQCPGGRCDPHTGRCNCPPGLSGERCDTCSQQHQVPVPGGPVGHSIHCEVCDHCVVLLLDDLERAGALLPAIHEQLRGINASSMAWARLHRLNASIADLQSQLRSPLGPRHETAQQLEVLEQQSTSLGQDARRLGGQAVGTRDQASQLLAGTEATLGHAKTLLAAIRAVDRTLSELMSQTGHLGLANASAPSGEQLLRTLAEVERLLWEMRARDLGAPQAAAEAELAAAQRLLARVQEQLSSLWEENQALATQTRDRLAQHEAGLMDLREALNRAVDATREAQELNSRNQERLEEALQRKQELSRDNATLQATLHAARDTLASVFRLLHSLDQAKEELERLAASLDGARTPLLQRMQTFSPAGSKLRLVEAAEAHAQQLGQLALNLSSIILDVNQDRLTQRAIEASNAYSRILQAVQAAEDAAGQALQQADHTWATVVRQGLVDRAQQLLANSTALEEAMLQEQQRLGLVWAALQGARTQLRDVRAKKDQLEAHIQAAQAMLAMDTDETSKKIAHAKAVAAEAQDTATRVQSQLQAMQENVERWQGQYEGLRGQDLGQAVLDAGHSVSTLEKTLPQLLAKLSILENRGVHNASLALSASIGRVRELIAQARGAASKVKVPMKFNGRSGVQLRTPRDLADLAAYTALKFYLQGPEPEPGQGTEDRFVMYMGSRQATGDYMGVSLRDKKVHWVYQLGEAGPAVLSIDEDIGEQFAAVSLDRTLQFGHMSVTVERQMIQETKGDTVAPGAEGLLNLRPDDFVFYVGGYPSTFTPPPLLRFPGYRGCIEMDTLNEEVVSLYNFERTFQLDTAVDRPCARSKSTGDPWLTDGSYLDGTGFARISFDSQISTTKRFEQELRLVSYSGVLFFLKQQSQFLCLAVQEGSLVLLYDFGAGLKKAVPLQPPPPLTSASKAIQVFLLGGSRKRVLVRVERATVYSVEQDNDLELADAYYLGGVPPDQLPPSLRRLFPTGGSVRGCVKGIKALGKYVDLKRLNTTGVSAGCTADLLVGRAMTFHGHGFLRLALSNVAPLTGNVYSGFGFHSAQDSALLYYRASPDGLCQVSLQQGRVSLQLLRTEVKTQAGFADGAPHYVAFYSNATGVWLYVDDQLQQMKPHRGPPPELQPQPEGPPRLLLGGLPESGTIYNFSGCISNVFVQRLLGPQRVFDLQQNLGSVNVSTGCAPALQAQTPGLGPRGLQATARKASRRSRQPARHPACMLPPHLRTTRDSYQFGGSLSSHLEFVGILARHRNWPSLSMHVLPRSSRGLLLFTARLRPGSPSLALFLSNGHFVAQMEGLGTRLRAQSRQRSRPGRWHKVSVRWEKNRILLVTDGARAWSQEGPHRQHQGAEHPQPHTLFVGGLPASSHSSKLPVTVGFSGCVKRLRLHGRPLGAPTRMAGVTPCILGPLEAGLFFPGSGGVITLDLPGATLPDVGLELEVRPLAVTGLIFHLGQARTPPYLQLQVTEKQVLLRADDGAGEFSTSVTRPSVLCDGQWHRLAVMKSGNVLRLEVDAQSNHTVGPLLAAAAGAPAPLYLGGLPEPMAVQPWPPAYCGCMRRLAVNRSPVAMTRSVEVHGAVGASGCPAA
UniProt P05230, residues 16-155: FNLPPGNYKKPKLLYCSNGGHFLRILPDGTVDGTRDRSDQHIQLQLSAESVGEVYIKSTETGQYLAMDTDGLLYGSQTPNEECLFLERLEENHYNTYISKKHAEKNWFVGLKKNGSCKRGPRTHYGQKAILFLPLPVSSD
UniProt P05019, residues 49-118: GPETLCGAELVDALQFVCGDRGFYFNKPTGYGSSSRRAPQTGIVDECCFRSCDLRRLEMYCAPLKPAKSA
UniProt P48061, residues 22-89: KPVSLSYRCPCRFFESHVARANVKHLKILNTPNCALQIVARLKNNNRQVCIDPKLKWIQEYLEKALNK
UniProt Q99075, residues 63-148: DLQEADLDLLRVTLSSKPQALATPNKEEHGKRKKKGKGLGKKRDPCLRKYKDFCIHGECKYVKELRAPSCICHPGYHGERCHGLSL
UniProt P01138, residues 122-241: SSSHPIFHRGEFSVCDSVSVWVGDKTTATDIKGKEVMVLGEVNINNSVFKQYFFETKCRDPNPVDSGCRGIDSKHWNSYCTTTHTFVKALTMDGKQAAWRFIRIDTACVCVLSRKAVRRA
UniProt P18075, residues 293-431: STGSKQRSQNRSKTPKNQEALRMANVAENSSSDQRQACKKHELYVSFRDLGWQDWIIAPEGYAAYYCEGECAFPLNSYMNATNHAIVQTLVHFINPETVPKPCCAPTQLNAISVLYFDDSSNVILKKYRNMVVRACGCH
UniProt P09038, residues 143-288: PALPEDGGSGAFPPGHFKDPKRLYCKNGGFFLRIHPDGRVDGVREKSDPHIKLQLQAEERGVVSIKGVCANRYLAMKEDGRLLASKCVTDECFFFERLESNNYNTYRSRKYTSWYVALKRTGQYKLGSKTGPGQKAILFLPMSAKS
UniProt P01127, residues 82-190: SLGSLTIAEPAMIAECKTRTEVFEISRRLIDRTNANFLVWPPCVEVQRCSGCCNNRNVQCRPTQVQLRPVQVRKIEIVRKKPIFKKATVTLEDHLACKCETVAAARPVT
UniProt P34741, residues 19-144: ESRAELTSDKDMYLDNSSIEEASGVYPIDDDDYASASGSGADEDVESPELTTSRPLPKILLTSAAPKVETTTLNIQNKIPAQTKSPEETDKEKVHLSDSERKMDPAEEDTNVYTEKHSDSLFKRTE

These are yes or no findings as the source states them, for the method shown. Some binding calls cover weakened binding; strength is not graded here.

The target of one test is laminin-221 (UniProt P24043). The test is described as follows: ELISA; plates coated with 10 μg/mL laminin isoform; 1 μg/mL GF for 60 min at RT in the absence or presence of 10 μM heparin; bound GF detected with an antibody for each GF; both purified.
In test [1] the target is recombinant human laminin-421 (human) (UniProt Q16363+P55268+P11047). Described as above.
Test [2] has as its target recombinant human laminin-411 (human) (UniProt Q16363+P07942+P11047). Described as above.
Test [3] concerns the target laminin peptide LAMA4_(1408–1434) (human) (UniProt Q16363). Nature of the test: ELISA; plates coated with laminin peptide (10 µg/mL by the legend, 1 μg/mL by the methods); 1 μg/mL GF added; bound GF detected with an antibody for each GF; BSA-coated wells as control; both purified.
Test [4] deals with laminin peptide LAMA4_(1521–1543) (human) (UniProt Q16363). Described as above.
In test [5] the target is T1, laminin peptide LAMA5_(3312–3325) (human) (UniProt O15230).
T1 sequence (peptide): ARKASRRSRQPARH
Described as above.

In the next test the target is FGF-1 (UniProt P05230). Nature of the test: ELISA; plates coated with 50 nM GF or chemokine in PBS; 10 nM laminin isoform in PBS added; bound laminin detected with anti-LAMC1 or anti-LAMA3 polyclonal antibody; A450 signals greater than 0.1 taken as binding; BSA-coated wells as control; both purified. In general terms: ELISA stands for enzyme-linked immunosorbent assay.

The next test deals with T2, PlGF-1 (human) (UniProt P49763).
T2 sequence: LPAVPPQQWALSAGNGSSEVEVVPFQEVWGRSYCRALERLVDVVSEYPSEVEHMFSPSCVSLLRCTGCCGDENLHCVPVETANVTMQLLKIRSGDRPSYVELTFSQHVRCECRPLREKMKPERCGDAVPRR
The test is described as above.

The target in the next test is T3, BMP-4 (UniProt P12644).
T3 sequence: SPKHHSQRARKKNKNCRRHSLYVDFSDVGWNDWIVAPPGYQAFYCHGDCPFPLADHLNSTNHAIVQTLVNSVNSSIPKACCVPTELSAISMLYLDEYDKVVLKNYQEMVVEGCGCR
The description is as above.

The next test addresses IGF-1 (UniProt P05019). The description is as above.
The target of a further test is T4, CXCL-11 (UniProt O14625).
T4 sequence: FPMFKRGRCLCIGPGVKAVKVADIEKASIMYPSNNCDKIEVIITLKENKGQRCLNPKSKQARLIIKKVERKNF
The description is as above.

Another test deals with T5, FGF-6 (UniProt P10767).
T5 sequence: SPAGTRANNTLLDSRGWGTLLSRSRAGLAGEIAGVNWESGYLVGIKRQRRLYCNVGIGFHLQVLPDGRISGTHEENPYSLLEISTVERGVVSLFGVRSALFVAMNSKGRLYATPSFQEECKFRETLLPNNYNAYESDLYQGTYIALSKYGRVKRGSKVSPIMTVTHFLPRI
Described as above.

In the next test the target is CXCL-12α (UniProt P48061). Described as above.
Test [6] concerns the target heparin-binding epidermal growth factor (HB-EGF) (UniProt Q99075). The description is as above.
In test [7] the target is β-nerve growth factor (βNGF) (UniProt P01138). The test is described as above.
Another test concerns the target BMP-7 (UniProt P18075). The test is described as above.
The target in test [8] is T6, laminin peptide LAMA3_(2932–2951) (human) (UniProt Q16787).
T6 sequence (peptide): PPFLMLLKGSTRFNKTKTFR
The test is described as follows: ELISA; plates coated with laminin peptide (10 µg/mL by the legend, 1 μg/mL by the methods); 1 μg/mL His-tagged syndecan added; detected with anti-histidine tag antibody; BSA-coated wells as control; both purified.

Test [9] deals with T7, laminin peptide LAMA3_(3031–3043) (human) (UniProt Q16787).
T7 sequence (peptide): KNSFMALYLSKGR
Described as above.

Test [10] has as its target laminin peptide LAMA4_(1408–1434) (human) (UniProt Q16363). The description is as above.
Test [11] deals with laminin peptide LAMA4_(1521–1543) (human) (UniProt Q16363). The description is as above.
Test [12] addresses T1, laminin peptide LAMA5_(3312–3325) (human). The description is as above.
Test [13] deals with T8, laminin peptide LAMA5_(3539–3550) (human) (UniProt O15230).
T8 sequence (peptide): TLPDVGLELEVR
The test is described as above.

Consider “FGF-2 (from UniProt P09038 143-288) (ligand)”, for which the binding entry is on record as “binds” with laminin-221; “binds” in test [1]; “binds” in [2]; “binds” in [3]; “binds” in test [4]; “no binding (tested: 1 μg/mL)” in test [5].
For “platelet-derived growth factor PDGF-BB (from UniProt P01127 82-190) (ligand)”, the binding entry in test [3] is given as “binds”; in [4], “no binding (tested: 1 μg/mL)”; in test [5] it was “no binding (tested: 1 μg/mL)”.
As for “recombinant human laminin-111 (from UniProt P25391 18-3075; P07942 22-1786; P11047 34-1609) (complex)”, the binding result with FGF-1, with PlGF-1 (human), with BMP-4, in the test with IGF-1, with CXCL-11 and with FGF-6 was “no binding (tested: 10 nM laminin)” throughout. Besides, the binding entry in the test with CXCL-12α was “no binding (tested: 10 nM laminin)”; in test [6], “binds weakly”; in test [7] it was “binds weakly”; with BMP-7 it was “no binding (tested: 10 nM laminin)”.
For the substance “recombinant human laminin-211 (from UniProt P24043 23-3122; P07942 22-1786; P11047 34-1609) (complex)”, the binding entry with FGF-1, in the test with PlGF-1 (human), in the test with BMP-4, with IGF-1, with CXCL-11 and with FGF-6 was “no binding (tested: 10 nM laminin)” throughout. Further, the binding entry with CXCL-12α was “no binding (tested: 10 nM laminin)”; in [6], “binds weakly”; in test [7], “binds weakly”; with BMP-7, “no binding (tested: 10 nM laminin)”.
Regarding “recombinant human laminin-511 (from UniProt O15230 36-3695; P07942 22-1786; P11047 34-1609) (complex)”, the binding result with FGF-1, in the test with PlGF-1 (human), with BMP-4, in the test with IGF-1, with CXCL-11 and with FGF-6 was “no binding (tested: 10 nM laminin)” in each case. Besides, the binding entry with CXCL-12α is “no binding (tested: 10 nM laminin)”; in test [6] it was “binds weakly”; in test [7] it was “binds weakly”; in the test with BMP-7, “no binding (tested: 10 nM laminin)”.
“recombinant human laminin-521 (from UniProt O15230 36-3695; P55268 33-1798; P11047 34-1609) (complex)”: the binding entry in the test with FGF-1, in the test with PlGF-1 (human), with BMP-4, in the test with IGF-1, with CXCL-11 and in the test with FGF-6 was “no binding (tested: 10 nM laminin)” each time. Moreover, the binding result with CXCL-12α is “no binding (tested: 10 nM laminin)”; in test [6], “binds weakly”; in test [7], “binds weakly”; with BMP-7 it was “no binding (tested: 10 nM laminin)”.
Consider “recombinant human syndecan-2 (from UniProt P34741 19-144) (receptor)”, for which the binding result in test [8] is “binds weakly”; in test [9], “binds weakly”; in [10], “binds”; in test [11], “binds”; in test [12], “binds weakly”; in test [13] it was “no binding (tested: 1 μg/mL)”.
